# The whole screen tested about 310,000 compounds, of which about 18,000 (5.8%) were called active. The shares of active, inactive and inconclusive entries below differ from those in the screen. Calls follow the shape of the dose curve; as a rule, active = well fitted inhibition curve with a large enough effect; inconclusive = small, poorly fitted or top-dose-only effect, or another doubt; inactive = no such curve, though single readings can be large or run the other way. Potencies of inconclusive entries are left out as doubtful fits.
# Assay: Primary qHTS for delayed death inhibitors of the malarial parasite plastid, 48 hour incubation
# Settings: P. falciparum luciferase growth in erythrocytes; series mostly up to 28.7 µM
# Method in brief: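 Compounds are pin-transferred into medium, infected erythrocytes (2% hematocrit, 0.1% parasitemia final) are added, and plates sit one parasite generation at 37 C in 5% CO2. Detection reagent is then added and luminescence measured.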
# % is scaled to controls: 0 for no effect and ±100 for the full control effect; potency is read from the fitted curve at half-maximal effect; tags tell the direction and shape of the fitted curve.
Structure (SMILES),Potency,"activity change, negative = inhibition"
CCCC(=O)Nc1ccc(Sc2ccc([N+](=O)[O-])cc2)cc1,active: 11.7 µM,
CCN(c1ccc(C(=O)CSc2nnc(C3CC3)n2C2CC2)cc1)S(C)(=O)=O,"inconclusive [inhibitor, single point]",
Cc1ccc2cc(CN(CCN3CCOCC3)C(=O)NCc3ccccc3)c(=O)[nH]c2c1C,"inconclusive [inhibitor, single point]",
Cc1ccc(CS(=O)Cc2ccc(C(=O)NCc3ccccc3Br)o2)cc1 (configuration not stated),inactive,
O=C(CCSCCc1ccccn1)Nc1cccc([N+](=O)[O-])c1,inactive,
CCCCc1nc2cc(C(=O)N3CCC(OC)CC3)ccc2o1,inactive,
COc1ccc(/C=C/CN2CCCC(CO)(Cc3cccc(Cl)c3)C2)cc1 (configuration not stated),active: 13.1 µM,
Cc1ccc(Nc2c(-c3ccc(N4CCOCC4)cc3)nc3cnccn23)cc1,"inconclusive [inhibitor, single point]",
CCOC(=O)c1cc2c(ccn2C)n1CC(=O)N(Cc1ccccc1)c1ccccc1,"inconclusive [inhibitor, single point]",
COc1ccc2c(c1)C(=O)[C@@H](OC(=O)NCc1ccc3c(c1)OCO3)[C@H](c1ccc(OC)c(Br)c1)O2,"inconclusive [inhibitor, single point]",
Cc1ccc(S(C)(=O)=O)cc1C(=O)Nc1cccc(S(=O)(=O)N2CCCCCC2)c1,"inconclusive [inhibitor, single point]",
COc1ccc(CCc2cc(OC)cc(=O)o2)cc1,inactive,
CCOc1ccc(-c2csc(Cn3c(CN4CCN(C)CC4)nc4ccccc4c3=O)n2)cc1,"inconclusive [inhibitor, single point]",
CC(C)CCN(C(=O)c1csnn1)C(C(=O)NC1CCCCC1)c1ccc(F)cc1 (configuration not stated),"inconclusive [inhibitor, single point]",
Cc1c(Cl)c(C(=O)NC2C3CC4CC(C3)CC2C4)nn1C (configuration not stated),"inconclusive [inhibitor, single point]",
CC(C)C[C@@H](C)C(=O)N(Cc1ccccc1)c1ccccc1,inactive,
O=C(O)c1ccc2c(=O)[nH]c(CCl)nc2c1,"inconclusive [inhibitor, single point]",
CCCCn1nc(NC(=O)c2cccs2)c2cc3cc(OC)ccc3nc21,"inconclusive [inhibitor, single point]",
COc1ccc(NS(=O)(=O)c2cc(NC(=O)CCNC(=O)c3ccco3)ccc2OC)cc1,"inconclusive [inhibitor, single point]",
Cc1ccccc1Cn1cc(NC(=O)CSc2nc3c(c(C(F)(F)F)n2)CCc2ccccc2-3)cn1,"inconclusive [inhibitor, partial curve, poor fit]",
O=[N+]([O-])c1ccc(CSc2ccc(S(=O)(=O)N3CCCC3)cn2)cc1,"inconclusive [inhibitor, partial curve, poor fit]",

Structure (SMILES),Potency,"activity change, negative = inhibition"
COc1ccc(CSCC(=O)Nc2ccccc2)cc1[N+](=O)[O-],inactive,
Cc1cc(NC(=O)C(C)SCC(=O)O)no1 (configuration not stated),"inconclusive [inhibitor, partial curve, poor fit]",
COc1ccccc1CC(=O)Nc1cccc(C(=O)Nc2nccs2)c1,"inconclusive [inhibitor, partial curve]",
COc1ccc(CNC(=O)[C@H](Cc2c[nH]c3ccccc23)NC(=O)[C@@H]2Cc3ccccc3CN2)cc1,"inconclusive [inhibitor, single point]",
CCc1nnc(NC(=O)CSc2nc3c(c(=O)n2C)SC(C)C3)s1 (configuration not stated),"inconclusive [inhibitor, partial curve, poor fit]",
CCOc1ccc(C(=O)CC(=O)C(=O)NCCc2ccc(OC)c(OC)c2)cc1,active: 13.1 µM,
COc1ccc(Nc2ccc(S(=O)(=O)N3CCCCC3)cc2[N+](=O)[O-])cc1,inactive,
Cc1ccc(Cl)c(Cn2cnc3c(cnn3C(C)(C)C)c2=O)c1F,"inconclusive [inhibitor, single point]",
CC(C)NC(=O)c1ccccc1NC(=O)C1COc2ccccc2O1 (configuration not stated),active: 10.4 µM,
Cc1ccc(-n2nc(C)c3c(C)c(CCC(=O)O)c(C)nc32)cc1,,inactive: 16.3% [at 0.00184 µM]
CC1CCc2c(C(=O)Nc3nccs3)csc2C1 (configuration not stated),"inconclusive [inhibitor, single point]",
COc1ccc(-n2nc(C(=O)NCC(=O)Nc3cccc(Cl)c3)c3ccccc3c2=O)cc1OC,"inconclusive [inhibitor, partial curve, poor fit]",
COC(=O)C1C2c3ccccc3OC1(C)N=c1s/c(=C/c3cnn(C)c3C)c(=O)n12 (configuration not stated),"inconclusive [inhibitor, single point]",
CCN1C(=O)[C@H]2[C@@H](c3ccc(C)cc3)N3C(=O)N(c4cccc(Cl)c4)C(=O)[C@@]3(C)[C@H]2C1=O,"inconclusive [inhibitor, single point]",
CC(c1ccccc1)N1CC(C(=O)N2CCCC(C(N)=O)C2)CC1=O (configuration not stated),inactive,
CSCCCNC(=S)Nc1cccc(S(=O)(=O)NC2=NCCC2)c1,inactive,
CCCn1c(=NC(C)=O)c(C(=O)OCC)cc2c(=O)n3ccccc3nc21,"inconclusive [inhibitor, partial curve, poor fit]",
O=C(C1=C[C@@H](c2ccccc2)C[C@@H](OCCCCO)O1)N1CCN(Cc2ccc3c(c2)OCO3)CC1,"inconclusive [inhibitor, partial curve]",
COc1ccc(CCn2c(=N)c(C(=O)NCCN3CCOCC3)cc3c(=O)n4ccccc4nc32)cc1OC,"inconclusive [inhibitor, single point]",
COc1ccc(C(CC(=O)N2CCCC(C)C2)c2c(O)cc(OC)cc2OC)cc1 (configuration not stated),"inconclusive [inhibitor, single point]",
CCOC(=O)C1=C(C)N=C2SCCC(=O)N2C1c1sccc1C (configuration not stated),"inconclusive [inhibitor, full curve, poor fit]",
